The other results are listed elsewhere or left out. Many values rest on one well or one pass, so single values are uncertain.
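Further: cell number obtained by counting DAPI-stained nuclei in high-throughput microscope images with image analysis software, screen run in 1,536-well plates.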

In the experiment the test system is MeWo. Description: cell count relative to DMSO control; melanoma cells; higher = more viable cells. To be noted: library dose: low library concentration; 72 h.
As to `Nc1ccn([C@@H]2O[C@H](CO)[C@@H](O)C2(F)F)c(=O)n1` [gemcitabine] + C[As](C)SC[C@H](NC(=O)CC[C@H](N)C(=O)O)C(=O)NCC(=O)O [Darinaparsin] (first compound 0.0004 µM, partner dose 0.4 µM), the cell count was determined as 85.7%.

As for `CC(C)C[C@H](NC(=O)[C@H](Cc1ccccc1)NC(=O)c1cnccn1)B(O)O` [Bortezomib] + O=C(Oc1ccc([N+](=O)[O-])cc1)N1CCC(C(O)(c2ccc3c(c2)OCO3)c2ccc3c(c2)OCO3)CC1 [JZL184] (first compound 0.001 µM, partner dose 1 µM), the cell count came to 69.3%.

As to `c1cc(-c2cnn3cc(-c4ccc(OCCN5CCCCC5)cc4)cnc23)ccn1` [Dorsomorphin] + O=C(Oc1ccc([N+](=O)[O-])cc1)N1CCC(C(O)(c2ccc3c(c2)OCO3)c2ccc3c(c2)OCO3)CC1 [JZL184] (first compound 0.4 µM, partner dose 1 µM), the cell count is 96.3%.

In turn, `Oc1cc(-c2nc(-c3ccccc3)[nH]c2-c2ccncc2)ccc1Cl` + O=C(Oc1ccc([N+](=O)[O-])cc1)N1CCC(C(O)(c2ccc3c(c2)OCO3)c2ccc3c(c2)OCO3)CC1 [JZL184] (first compound 0.2 µM, partner dose 1 µM) registered a cell count of 90.4%.

For `Nc1ccn([C@@H]2O[C@H](CO)[C@@H](O)C2(F)F)c(=O)n1` [gemcitabine] + C/C(O)=C(\C#N)C(=O)Nc1cc(Br)ccc1Br [LFM-A13] (first compound 0.0004 µM, partner dose 2 µM), the cell count was found to be 95.7%.

(Values after the supplement of paper PMC4604168 (melanoma cell lines).)
